The source of these data is the antibiotic and cytotoxicity screens of Wong et al. (2023).

Each structure is given as a SMILES string. The list shows a part of the results.

The assay concerns S. aureus RN4220. Description: growth inhibition call (relative growth <= 0.2). The settings on record: 50 µM.
Take `C[C@@H]1CCCCO[C@@H](CN(C)C(=O)CCC(F)(F)F)[C@H](C)CN([C@@H](C)CO)C(=O)c2cc(NC(=O)Cc3ccccc3)ccc2O1`: the growth inhibition call was “inactive”.
With `COC(=O)c1c(OC)cc2c(c1C)Oc1c(Cl)c(O)c(Cl)c(C)c1C(=O)O2`, the growth inhibition call is “inactive”.
As to `Cc1[nH]c(=O)[nH]c(=O)c1S(=O)(=O)N1CCC[C@H](C(=O)NCCc2c[nH]c3ccc(F)cc23)C1`, the growth inhibition call is “inactive”.
Turning to `C[C@H](CO)N1C[C@H](C)[C@H](CN(C)Cc2ccc3c(c2)OCO3)Oc2ccc(NC(=O)CCN3CCOCC3)cc2C1=O`, the growth inhibition call is “inactive”.
For `Cc1noc(N)c1C(=O)O`, the growth inhibition call is “inactive”.
As for `Cc1noc(C)c1NC(=O)N(C)C[C@H]1OCCCC[C@H](C)Oc2ccc(NC(=O)Cc3ccccc3)cc2C(=O)N([C@@H](C)CO)C[C@@H]1C`, the growth inhibition call was “inactive”.
As to `C[C@H](CO)N1C[C@H](C)[C@@H](CN(C)Cc2ccc(C(F)(F)F)cc2)Oc2ccc(NC(=O)Cc3cn(C)c4ccccc34)cc2C1=O`, the growth inhibition call is “inactive”.
In the case of `COCC(=O)Nc1ccc2c(c1)OC[C@H](C)N(C(=O)Cc1cccnc1)C[C@H](C)[C@H](OC)CN(C)C2=O` it was “inactive”.
With `C[C@H]1CNC(=O)[C@@H](CC(=O)N(CCOC(=O)NCCCCCC(=O)NO)Cc2ccccc2)C/C=C/CC[C@H](NC(=O)OC(C)(C)C)C(=O)O1`, the growth inhibition call is “inactive”.
With `C[C@H](CO)N1C[C@H](C)[C@H](CN(C)C(=O)Nc2cccc3ccccc23)Oc2c(NC(=O)Nc3ccc4c(c3)OCO4)cccc2C1=O`, the growth inhibition call was “inactive”.
As for `C/C=C/c1cnc2c(c1)C(=O)N([C@H](C)CO)C[C@H](C)[C@H](CN(C)S(=O)(=O)c1ccc(OC)cc1)O2`, the growth inhibition call was “inactive”.
In the case of `C[C@H](CO)N1C[C@H](C)[C@H](CN(C)Cc2ccc(C(F)(F)F)cc2)OCCCC[C@H](C)Oc2ccc(NS(=O)(=O)c3cn(C)cn3)cc2C1=O` it was “inactive”; in that of `Nc1cccc(=O)[nH]1`, “inactive”.
Regarding `C[C@@H]1CN([C@H](C)CO)C(=O)Cc2cc(NC(=O)C3CC3)ccc2O[C@@H]1CN(C)Cc1ccc(C(=O)O)cc1`, the growth inhibition call is “inactive”.
`C[C@@H]1CN([C@H](C)CO)C(=O)c2cc(NC(=O)C3CC3)ccc2O[C@H]1CN(C)Cc1ccc(Oc2ccccc2)cc1`: the growth inhibition call is “inactive”.
Take `C[C@@H]1CCCCO[C@@H](CN(C)S(=O)(=O)c2cccs2)[C@@H](C)CN([C@@H](C)CO)C(=O)c2cc(NC(=O)Nc3ccccc3)ccc2O1`: the growth inhibition call was “inactive”.
Regarding `Cc1ccc(S(=O)(=O)N(C)C[C@@H]2Oc3c(NC(=O)c4cnccn4)cccc3C(=O)N([C@@H](C)CO)C[C@H]2C)cc1`, the growth inhibition call was “inactive”.
On to `Cc1ccc(S(=O)(=O)N(C)C[C@H]2Oc3ccc(NC(=O)C4CC4)cc3C(=O)N([C@@H](C)CO)C[C@H]2C)cc1`, for which the growth inhibition call is “inactive”.
